This is one part of the list.
Assays:
Experiment in all cases: glycan array binding signal (z-score within array); higher = stronger binding
Conditions in all cases: glycan notation: IUPAC condensed, linker removed
[1] = target: Gal(b1-4)GalNAc(b1-3)[Fuc(a1-2)]Gal(b1-4)GlcNAc
Method in brief: (§1)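 From the Consortium for Functional Glycomics database, 3228 arrays were curated, keeping only those whose protein sequence was available. Binding is given as a within-array Z-score averaged across arrays sharing a protein sequence and across linkers. Negative Z-scores can be read as non-binding.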

[2] = target: Gal(b1-4)Glc
Method in brief: as §1

[3] = target: Gal(b1-4)Glc6S
Method in brief: as §1

[4] = target: Gal(b1-4)GlcNAc
Method in brief: as §1

[5] = target: Gal(b1-4)GlcNAc(a1-6)Gal(b1-4)GlcNAc
Method in brief: as §1

[6] = target: Gal(b1-4)GlcNAc(b1-2)Man
Method in brief: as §1

[7] = target: Gal(b1-4)GlcNAc(b1-2)Man(a1-3)Man(b1-4)GlcNAc(b1-4)GlcNAc
Method in brief: as §1

[8] = target: Gal(b1-4)GlcNAc(b1-2)Man(a1-3)[Gal(b1-4)GlcNAc(b1-2)Man(a1-6)]Man(b1-4)GlcNAc(b1-4)GlcNAc
Method in brief: as §1

[9] = target: Gal(b1-4)GlcNAc(b1-2)Man(a1-3)[Gal(b1-4)GlcNAc(b1-2)Man(a1-6)]Man(b1-4)GlcNAc(b1-4)[Fuc(a1-6)]GlcNAc
Method in brief: as §1

[10] = target: Gal(b1-4)GlcNAc(b1-2)Man(a1-3)[Gal(b1-4)GlcNAc(b1-2)Man(a1-6)][Gal(b1-4)GlcNAc(b1-4)]Man(b1-4)GlcNAc(b1-4)[Fuc(a1-6)]GlcNAc
Method in brief: as §1

[11] = target: Gal(b1-4)GlcNAc(b1-2)Man(a1-3)[Gal(b1-4)GlcNAc(b1-2)Man(a1-6)][GlcNAc(b1-4)]Man(b1-4)GlcNAc(b1-4)[Fuc(a1-6)]GlcNAc
Method in brief: as §1

[12] = target: Gal(b1-4)GlcNAc(b1-2)Man(a1-3)[GlcNAc(b1-2)Man(a1-6)]Man(b1-4)GlcNAc(b1-4)GlcNAc
Method in brief: as §1

[13] = target: Gal(b1-4)GlcNAc(b1-2)Man(a1-3)[GlcNAc(b1-4)][Gal(b1-4)GlcNAc(b1-2)Man(a1-6)]Man(b1-4)GlcNAc(b1-4)GlcNAc
Method in brief: as §1

[14] = target: Gal(b1-4)GlcNAc(b1-2)Man(a1-3)[Man(a1-6)]Man(b1-4)GlcNAc(b1-4)GlcNAc
Method in brief: as §1

[15] = target: Gal(b1-4)GlcNAc(b1-2)Man(a1-6)Man(b1-4)GlcNAc(b1-4)GlcNAc
Method in brief: as §1

[16] = target: Gal(b1-4)GlcNAc(b1-2)Man(a1-6)[GlcNAc(b1-2)Man(a1-3)]Man(b1-4)GlcNAc(b1-4)GlcNAc
Method in brief: as §1

[17] = target: Gal(b1-4)GlcNAc(b1-2)Man(a1-6)[Man(a1-3)]Man(b1-4)GlcNAc(b1-4)GlcNAc
Method in brief: as §1

[18] = target: Gal(b1-4)GlcNAc(b1-2)[Gal(b1-4)GlcNAc(b1-4)]Man(a1-3)[Gal(b1-4)GlcNAc(b1-2)Man(a1-6)]Man(b1-4)GlcNAc(b1-4)GlcNAc
Method in brief: as §1

[19] = target: Gal(b1-4)GlcNAc(b1-2)[Gal(b1-4)GlcNAc(b1-4)]Man(a1-3)[Gal(b1-4)GlcNAc(b1-2)[Gal(b1-4)GlcNAc(b1-6)]Man(a1-6)]Man(b1-4)GlcNAc(b1-4)GlcNAc
Method in brief: as §1

[20] = target: Gal(b1-4)GlcNAc(b1-2)[Gal(b1-4)GlcNAc(b1-4)]Man(a1-3)[GlcNAc(b1-4)][Gal(b1-4)GlcNAc(b1-2)Man(a1-6)]Man(b1-4)GlcNAc(b1-4)GlcNAc
Method in brief: as §1

[21] = target: Gal(b1-4)GlcNAc(b1-2)[Gal(b1-4)GlcNAc(b1-4)]Man(a1-3)[GlcNAc(b1-4)][Gal(b1-4)GlcNAc(b1-2)[Gal(b1-4)GlcNAc(b1-6)]Man(a1-6)]Man(b1-4)GlcNAc(b1-4)GlcNAc
Method in brief: as §1

[22] = target: Gal(b1-4)GlcNAc(b1-2)[Gal(b1-4)GlcNAc(b1-6)]Man(a1-6)[Gal(b1-4)GlcNAc(b1-2)Man(a1-3)]Man(b1-4)GlcNAc(b1-4)GlcNAc
Method in brief: as §1

[23] = target: Gal(b1-4)GlcNAc(b1-2)[Gal(b1-4)GlcNAc(b1-6)]Man(a1-6)[Gal(b1-4)GlcNAc(b1-2)Man(a1-3)]Man(b1-4)GlcNAc(b1-4)[Fuc(a1-6)]GlcNAc
Method in brief: as §1

[24] = target: Gal(b1-4)GlcNAc(b1-2)[Gal(b1-4)GlcNAc(b1-6)]Man(a1-6)[GlcNAc(b1-4)][Gal(b1-4)GlcNAc(b1-2)Man(a1-3)]Man(b1-4)GlcNAc(b1-4)GlcNAc
Method in brief: as §1

[25] = target: Gal(b1-4)GlcNAc(b1-2)[Gal(b1-4)GlcNAc(b1-6)]Man(a1-6)[GlcNAc(b1-4)][Gal(b1-4)GlcNAc(b1-2)[Gal(b1-4)GlcNAc(b1-4)]Man(a1-3)]Man(b1-4)GlcNAc(b1-4)[Fuc(a1-6)]GlcNAc
Method in brief: as §1

[26] = target: Gal(b1-4)GlcNAc(b1-3)Gal(b1-3)GalNAc
Method in brief: as §1

[27] = target: Gal(b1-4)GlcNAc(b1-3)Gal(b1-3)GlcNAc
Method in brief: as §1

[28] = target: Gal(b1-4)GlcNAc(b1-3)Gal(b1-4)Glc
Method in brief: as §1

[29] = target: Gal(b1-4)GlcNAc(b1-3)Gal(b1-4)GlcNAc
Method in brief: as §1

[30] = target: Gal(b1-4)GlcNAc(b1-3)Gal(b1-4)GlcNAc(b1-2)Man(a1-3)[Gal(b1-4)GlcNAc(b1-3)Gal(b1-4)GlcNAc(b1-2)Man(a1-6)]Man(b1-4)GlcNAc(b1-4)GlcNAc
Method in brief: as §1

B1: CC1G-10077 (Coprinopsis cinerea), A8NDT7 (protein)
chain: MALNEGVYWIRNSRFTNKVLDLDAANVAKGTSILDFNEHGTFNENHNQLWIVERFQSRDTYLIRSVHSNLVLDLSQGLSANGTPILCWTQHGGTNQQWRIEWVKDDNKTPLYRIVSVATGTAISHNEDDSSAYTVAWSVDDGPKQLWSFDPFVTPLLYRLRVKSTSRVLDLAAASADNGTLALAWEQHTAITKRNQLWWLPYRSGAEEYTIQCLETSTVADLSGGNSGNGTPIYGWQSHGGRNQQWKFEPTSDSGDYYHIKNVEGGSVMDAYMNDSQKRVGGWSNNGGDNQKWLLDPLPSPGPGWVLIQNGGTGKFLCSTPSGDIGTADGPETVYDYSVQWRFIQREYTGVYHVVNRATGAYLRQIGTSMPSIGLAEENDDELKDWWMLETYDNSEIGLASIISRWTGNVLDHYGGVSVQALDNNTENSYRSWAIIPARDWLTSFSLVNGQGGLCLAAQYAREETRLSTTANVNDFHAQWVFRKPSGSSGYTIQNKYNNHYVGGTSARWELVVCCNKYFGIRNTSTQKYLAIEDGQVTFQDQDMTDRKQCWELCSGRATDTSGNDYDLIYMDDDLLEVMIPWVGDKQGDLKHYIEKRATKKPPKDKGGWQLPAAGLIKKPKFNDIRQLLQELIEQWEWDVVNEEREQIQTLVSIDEAEARRLLGRRPHPDIVAAYQRSRSSTLFRIDRQGYFNIAGDRYVNIQGQYGDDSYFHIALPVGVRFGREQIRRFLRDSLDRSTSVTITPTTCKPPSGGPDYNRDPDSDGDNSWIKWTIAVVGTSAIKHSEL
[1]
  glycan array binding signal (z-score): 0.111
[2]
  glycan array binding signal (z-score): -0.083
[3]
  glycan array binding signal (z-score): -0.024
[4]
  glycan array binding signal (z-score): 0.829
[5]
  glycan array binding signal (z-score): 3.26
[6]
  glycan array binding signal (z-score): -0.331
[7]
  glycan array binding signal (z-score): 1.15
[8]
  glycan array binding signal (z-score): 2.13
[9]
  glycan array binding signal (z-score): 0.665
[10]
  glycan array binding signal (z-score): 2.17
[11]
  glycan array binding signal (z-score): 1.13
[12]
  glycan array binding signal (z-score): 2.09
[13]
  glycan array binding signal (z-score): 0.424
[14]
  glycan array binding signal (z-score): 1.52
[15]
  glycan array binding signal (z-score): 0.348
[16]
  glycan array binding signal (z-score): 3.12
[17]
  glycan array binding signal (z-score): 0.327
[18]
  glycan array binding signal (z-score): 2.13
[19]
  glycan array binding signal (z-score): 1.52
[20]
  glycan array binding signal (z-score): 2.13
[21]
  glycan array binding signal (z-score): 2.55
[22]
  glycan array binding signal (z-score): 2.01
[23]
  glycan array binding signal (z-score): 2.14
[24]
  glycan array binding signal (z-score): 1.35
[25]
  glycan array binding signal (z-score): 1.76
[26]
  glycan array binding signal (z-score): 0.413
[27]
  glycan array binding signal (z-score): 0.333
[28]
  glycan array binding signal (z-score): 1.01
[29]
  glycan array binding signal (z-score): 1.17
[30]
  glycan array binding signal (z-score): 1.06
